Structures are written as SMILES. Only a part is listed here, and it is no random draw. These assays gave more results; the selection is not random.

The experiment deals with Ataxin-2 (Homo sapiens) (UniProt Q99700). Nature of the experiment: qHTS for Inhibitors of ATXN expression. The experiment is classed as functional. (Quantitative high-throughput screening tests each substance at several concentrations.)
Chain of UniProt Q99700 (Q99700 whole entry): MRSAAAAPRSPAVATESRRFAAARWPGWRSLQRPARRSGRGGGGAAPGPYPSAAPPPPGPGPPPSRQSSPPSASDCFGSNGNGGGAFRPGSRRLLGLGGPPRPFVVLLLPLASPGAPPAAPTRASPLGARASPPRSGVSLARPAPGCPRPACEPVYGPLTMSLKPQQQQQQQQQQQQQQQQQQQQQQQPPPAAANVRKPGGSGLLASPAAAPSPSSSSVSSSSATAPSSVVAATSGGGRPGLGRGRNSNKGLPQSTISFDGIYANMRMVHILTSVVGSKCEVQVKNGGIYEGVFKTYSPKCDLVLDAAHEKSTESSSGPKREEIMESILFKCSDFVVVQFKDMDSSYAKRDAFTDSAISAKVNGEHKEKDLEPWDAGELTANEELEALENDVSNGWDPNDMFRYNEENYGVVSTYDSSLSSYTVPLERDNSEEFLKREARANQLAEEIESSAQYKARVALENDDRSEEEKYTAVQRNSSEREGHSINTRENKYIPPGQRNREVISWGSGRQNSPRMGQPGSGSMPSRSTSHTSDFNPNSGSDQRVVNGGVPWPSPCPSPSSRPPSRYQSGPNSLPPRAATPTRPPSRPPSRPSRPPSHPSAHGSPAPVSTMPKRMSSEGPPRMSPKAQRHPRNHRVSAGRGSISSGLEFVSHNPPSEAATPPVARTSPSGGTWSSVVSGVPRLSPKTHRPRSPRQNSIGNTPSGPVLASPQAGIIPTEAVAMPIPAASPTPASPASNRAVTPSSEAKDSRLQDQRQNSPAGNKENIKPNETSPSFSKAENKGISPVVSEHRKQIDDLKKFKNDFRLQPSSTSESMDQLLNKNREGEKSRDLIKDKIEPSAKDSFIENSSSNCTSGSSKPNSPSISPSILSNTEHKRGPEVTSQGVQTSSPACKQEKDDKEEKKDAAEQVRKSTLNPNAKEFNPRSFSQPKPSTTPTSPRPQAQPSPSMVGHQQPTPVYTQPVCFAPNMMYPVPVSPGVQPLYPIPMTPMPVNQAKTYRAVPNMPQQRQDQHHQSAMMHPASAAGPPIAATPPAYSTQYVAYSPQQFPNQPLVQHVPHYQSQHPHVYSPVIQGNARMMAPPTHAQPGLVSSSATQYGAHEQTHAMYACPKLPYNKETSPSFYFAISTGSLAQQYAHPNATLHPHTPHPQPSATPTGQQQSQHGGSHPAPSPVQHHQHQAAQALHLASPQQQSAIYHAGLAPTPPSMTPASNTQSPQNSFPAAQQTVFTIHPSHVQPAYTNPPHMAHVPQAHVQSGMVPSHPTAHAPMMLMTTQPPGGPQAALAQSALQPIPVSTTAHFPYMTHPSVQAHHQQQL
Take `CNC1CCc2cc(OC)c(OC)c(OC)c2-c2ccc(SC)c(=O)cc21` (stereo unspecified): the Potency is active: 3.8 nM.

The record behind these values is ChEMBL document CHEMBL1201862, “PubChem BioAssay data set” (2004).
